20 variants from the RNAGym collection of RNA variant scans (doi:10.7554/elife.90254) can be followed below.

Read counts are not given, so values of variants with three or more changes are uncertain.

Sequences and labels used below:
B1: LINE1-full (parent)
chain: UACGUAGGUGGUUUUCCCCUGAUAGUGCUAAGGGGGCCUGGAAGUUUGGACUGGGCAGAGCUCAACACAGCGUGGCAAAGUGGCUGUGGCUAGACUGCCUCUCUGGAUUCCUCGUCACUCAGCAGGGCAUCUCUGAGAGAAAUGCC

Variants of B1 are the subject of the series. Nature of the series: self-cleavage, relative activity (ratio to wild type); higher = more cleavage; in vitro, sequencing; the parent is a self-cleaving ribozyme.
For CACGUAGGUGGCUUUCCCCUGAUUGUGCUAAGGGGGCCUGGAAGUUUGGACUGGGCAGAGCUCAACACAGCGUGGCAAAGUGGCUGUGGCUAGACCGCCUCUCUGGAUUCCUCGUCACUCAGCAGGGCAUCUCUGGGAGAAAUGCC [U1C U12C A24U U96C A136G], the self-cleavage turned out to be 0.22. Turning to CACGUAGGCGGUUUUCCCCUGAUAGUGCUAAGGGGGCCUGGAAGUUUGGACUGGGCAGAGCUCAACACAGCGUGGCAAAGUGGCUGUGGCUAGACUGCCUCUCCGGAUUCCUCGUCACUCAGCAGGGCAUCUCUGAGAGAAAUGCC [U1C U9C U104C], the self-cleavage was found to be 0.71.

As for CACGUAGGUGGUUUUCCCCUGAUAGUGCUAAGGGGGCCUGGAAGUUUGGACUGGGCAUAGCUCAACACAGCGUGGCAAAGUGGCUGUGGCUAGACUGCCUCUCUGGAUUCCUCGUCACUCAGCAGGGCAUCUCCGAGAGAAAUGCC [U1C G58U U134C], the self-cleavage turned out to be 0.23. To CACGUAGGUGGUUCUCCCCUGAUAGUGCUAAGGGGGCCUGGAAGUUUGGACUGGGCAGAGCUCAACACAGCGUGGCAGAGUGGCUGUGGCUAGACUGCCUCUCUGGAUUCCUCGUCACUCAGCAGGGCAUCUCUGAGAGGAGUGCC [U1C U14C A78G A140G A142G] belongs 0.34; to CACGAAGGUGGUUUUCCCCUGAUAGUGCUAAGGGGGCCUGGAAGUUUGGACUGGGCAGAGCUCUACACAGCGUGGCAAAGUGGCUGUGGCUAGACUGCCUCUCUGGAUUCCUCGUCACUCAGCAGGGCGUCUCUGAGAGAAAUGCC [U1C U5A A64U A129G], 0.41; to CACGUAGGUGGUUUUCCCCUGAUAGUGCUAAGGGGGCCUGGAAGUUUGGACUGGGCAAAGCUCAACACAGCGUGGCAAAGUGGCUGUGGCUAGACUGCCUCUCUGGAUUCCUCGUCACUCAGCGGGGCAUCUCUGAGAGAAAUGCC [U1C G58A A124G], 0.09. Regarding CACGUAGGUGGUAUUCCCCGGAUAGUGCUAAGGGAGCCUGGAAGUUUGGACUGGGCAGAGCUCAACACAGCGUGGCAAAGUGGCUGUGGCUAGACUGCCUCUCUGGAUUCCUCGUCACUCAGCGGGGCAUCUCUGAGAGAAAUGCC [U1C U13A U20G G35A A124G], the self-cleavage is 0.5.

Regarding CACGUAGGUGGGUUUCCCCUGAUAGUGCUAAGGGGGCCUGGAAGUUUGGACUGGGCAGAGCUCAACACAGCGUGGCAAAGUGGCUGUGGCUAGACUGCCUCUCUGGAUUCCUCGUCACUCAGCUGGGCAUCUCUGAGAGAAAUGCC [U1C U12G A124U], the self-cleavage came out at 0.53.

In the case of CACGUAGGGGGUUUUCCCCUGAUAGUGCUAAGGGGGCCUGGAAGUUUGGACUGGGCAGAGCUCAACACAGCAUGGCAAAGUGGCUGUGGCUAGACUGCCUCUCUGGAUUCCUCGUCACUCAGCAGGGCAUCUCUGAGAGAAAUGCC [U1C U9G G72A], the self-cleavage came to 0.68. To CACGUAGGUGGUCUUCCCCUGAUAGUGCUUAGGGGGCCUUGAAGUUUGGACAGGGCAGAGCUCAACACUGCGUGGCAAAGUGGCUGUGGCUAGACUGCCUCUCUGGAUUCCUCGUCACUCAGCAGGGCAUCUCUGAGGGAAAUGCC [U1C U13C A30U G40U U52A A69U A138G] belongs 0.01; to CACGUAGGCGAUUUUCCCCUGAUAGUGCUAAGGGGGCCUGGAAGUUUGGACUGGGCUGAGCUCAACACAGCGUGGCAAAGUGGCUGUGGCUAGACUGCCUCUCUGGAUUCCUCGUCACUCAGCGGGGCAUCUCUGAGAGAAAUGCC [U1C U9C G11A A57U A124G], 0.11; to CACGUAGGUGGGUUUCCCCUGAUAGUGCUAGGGGGGCCUGGAAGUUUGGACUGGGCAGAGCUCAACACAGCGUGGCAAAGUGGCCGUGGCUAGACUGCCUCUCUGGAUUCCUCGCCACUCAGCAGGGCAUCUCUAAGAGAAAUGCC [U1C U12G A31G U85C U115C G135A], 0. Regarding CACGUAGGUGGGUUUCCCCUGAUAGUGCUAAGGGGGCCUGGAAGUUUGGACUGGGCAGAGCUCGACACAGCGUGGCUAAGUGGCUGUGGCUAGACUGCCUCUCUGGAUUCCUCGUCACUCAGCAGGGCAUCUCUGAGAGAAAUGCC [U1C U12G A64G A77U], the self-cleavage came to 0.5. CACGUAGGUGGCUUUCCCCUGAUAGUGCUAAGGGGGCCUGGAAGUUUGGACUGGGCAGAGCUCAACACAGCGUGGCAAAGUGGCUGUGGCUAGACUGCCUCUCUGGAUUCCUCGUCACUCGGCAGGGCAUCUCUGAGAGAAAUGCC [U1C U12C A121G]: the self-cleavage is 0.94. Turning to CACGUAGGUGGGUUUCCCCUGAUAGUGCUAAGGGGGCCUGGAAGUUUGGACUGGGCAGAGCUCAACACAGCGUGGCAAAGUGGCUGUGGCUAGACUGCCUCUCUGGAUUCCUCGUCACUCAGCAGGGCAUCUCUGAGAUAAAUGCC [U1C U12G G139U], the self-cleavage came to 0.6.

Turning to CACGCAGGUGGUUUUCCCCAGAUAGUGCUAAGGGGGCCUGGAAGUUUGGACUGGGCAGAGCUCAACACAGCGUGGCAAAGUGGCUGUGGCUAGACUGCCUCUCUGGAUUCCUCGUCACUCAGCAGGGCGUCUCUGAGCGAUAUGCC [U1C U5C U20A A129G A138C A141U], the self-cleavage is 0. For the variant CACGUAGGUGGCUUUCCCCUGAUAGUGCUAGGGGGGCCUGGAAGUUUGGAUUGGGCAGAGCUCAACACAGCGUGGCAAAGUGGCUGUGGCUAGACUGCCUCUCUGGAUUCCUCGUCACUCAGCAGGGCAUCUCUGAGAGAAAUGCC [U1C U12C A31G C51U], the self-cleavage was determined as 1.17.

Turning to CACGUAGGUGGUUUUCCCCUGAUAGUGCUAAGGGGGCCUGGAAGUUUGAACUGGGCGGAGCUCAACGCAGCGUGGCAAAGUGGCUGUGGCUAGACUGCCUCUCUGGAUUCCUCGUCACUCAGCAGGGCAUCUCUGAGAGAAAUGCC [U1C G49A A57G A67G], the self-cleavage is 0.99. To CACGUAGGUGGCUUUCCCCUGAUAGUGCUAAGGGGGCCUGGAAGUUUGGACUGGGCAGAGCUCAACACAGCGUGGCAAAGUGGCUGUGGCUAGACUGCCUCUCUGGAUUCCUCGUCACCCAGCAGGGCAUCUCUGAGAGAAAUGCC [U1C U12C U119C] belongs 1.6; to CACGUAGGUGGCUUUCCCCUGGUAGUGCUAAGGGGGCCUGGAAGUUUGGACUGGGCAGAGCUCAACACAGCGUGGCAAAGAGGCUGUGGCUAGACUGCCUCUCUGGAUUCCUCGUUACUCAGCAGGGCAUCUCUGAGAGAAAUGCC [U1C U12C A22G U81A C116U], 1.41.
